The campaign covered roughly 310,000 compounds. About 18,000 (5.8%) were called active. The shares of active, inactive and inconclusive entries below differ from those in the screen. The call rests on the fitted dose curve; in most records, active means well fitted inhibition curve with a large enough effect; inconclusive means small, poorly fitted or top-dose-only effect, or another doubt; inactive means no such curve, though single readings can be large or run the other way. Potencies of inconclusive entries are left out as doubtful fits.
Assay: Primary qHTS for delayed death inhibitors of the malarial parasite plastid, 48 hour incubation
Settings: P. falciparum luciferase growth in erythrocytes; series mostly up to 28.7 µM
How it was run: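 Growth was read as firefly luciferase luminescence after a 48 h, 37 C, 5% CO2 exposure of compounds to reporter-bearing P. falciparum cultures (0.1% parasitemia, 2% hematocrit final) in Albumax-supplemented RPMI 1640.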
Potency means the concentration at half of the fitted maximal effect; tags describe the fitted curve by direction and shape.

Row | Compound | Potency
1 | Clc1ccc2nc(CSc3ncn[nH]3)cn2c1 | inactive
2 | COc1ccc([C@@H]2CC=C(C(=O)O)[C@H](c3cccc(Cl)c3)N2S(=O)(=O)c2ccc(C)cc2)cc1OC | inconclusive [inhibitor, single point]
3 | CC/C=C/CC(=O)N[C@@H](c1ccccc1)[C@@H](O)C(=O)O[C@H]1C[C@@]2(O)[C@@H](OC(=O)c3ccccc3)C3[C@](C)(C(=O)[C@H](OC(C)=O)C(=C1C)C2(C)C)[C@@H](O)C[C@H]1OC[C@@]31OC(C)=O (stereo partly drawn) | active: 0.465 µM
4 | C=CCn1c(O)c(N=NC(=S)Nc2cccc(OC)c2)c2ccccc21 | active: 3.7 µM
5 | COc1ccc(CCNC(=O)CSc2nnc3ccc(-c4ccncc4)nn23)cc1 | inconclusive [inhibitor, partial curve, poor fit]
6 | Cc1ccc(S(=O)(=O)N(C)C)cc1NC(=O)C1Cc2ccccc2CN1C(=O)c1ccco1 (stereo not drawn) | inconclusive [inhibitor, single point]
7 | Cc1ccc(S(=O)(=O)N2CCOCC2)cc1C(=O)Nc1ccccc1N1CCCC1 | inconclusive [inhibitor, single point]
8 | COc1ccc(-c2nc(SCC(=O)N3CCCC3)n[nH]2)cc1 | inactive
9 | O=C(NCc1ccccn1)c1n[nH]c(=O)c2ccccc12 | inconclusive [inhibitor, full curve, poor fit]
10 | CC(Cc1cnccn1)NC(=O)c1cc(COc2ccc(F)cc2F)on1 (stereo not drawn) | inactive
11 | CC(=O)Nc1ccc(N2C(=O)c3ccc(S(=O)(=O)c4ccc(C(=O)O)cc4)cc3C2=O)cc1 | active: 11.7 µM
12 | COC(=O)C1=CN(CCCN2CCCC2=O)C=C(C(=O)OC)C1c1ccccc1C(F)(F)F | inconclusive [inhibitor, partial curve]
13 | CCOC(=O)N1CCN(C(=O)c2ccc(CNS(=O)(=O)c3ccc(OC)cc3)cc2)CC1 | inactive
14 | CC(=O)NC(c1ccco1)c1cc(Cl)c2cccnc2c1O (stereo not drawn) | inconclusive [inhibitor, partial curve, poor fit]
15 | CCO[C@H]1OC(C(=O)Nc2ccccc2)=C[C@@H](c2cn(C(C)=O)c3ccccc23)[C@@H]1CCCO | inconclusive [inhibitor, partial curve, poor fit]
16 | CCn1cnc2c1c(=O)n(Cc1cccc(Br)c1)c(=O)n2Cc1ccccc1 | inconclusive [inhibitor, partial curve]
17 | COc1ccc(OC)c(-n2nnnc2SCC(=O)Nc2ccccc2N2CCOCC2)c1 | inactive
18 | Cc1ccc(C2=NNC(=Nc3ccc(F)cc3)SC2)cc1 | inconclusive [inhibitor, single point]
19 | CCOc1cc(C2C(C(=O)OC)=CN(C3CCCC3)C=C2C(=O)OC)cc(Br)c1O | inconclusive [inhibitor, partial curve, poor fit]
20 | CCc1nnc(NC(=O)c2ccc(S(=O)(=O)N3CCCC(C)C3)cc2)o1 (stereo not drawn) | inconclusive [inhibitor, single point]
21 | COC(=O)c1c(Cl)c2n3ccccc3c(C)c(-c3ccccc3)c-2c1C(=O)OC | inconclusive [inhibitor, single point]
22 | O=C(CN1C(=O)C(=O)N(Cc2ccco2)C1=O)c1c[nH]c2ccccc12 | inconclusive [inhibitor, partial curve]

Row | Compound | Potency
23 | O=C(CCl)NN1C(=O)NC(c2ccccc2)(c2ccccc2)C1=O | inconclusive [inhibitor, partial curve]
24 | COc1ccc2sc(-c3ccc(N(C)C)cc3)c(C#CCO)c2c1 | inconclusive [inhibitor, single point]
25 | O=C(Cc1ccc([N+](=O)[O-])cc1)NC1CCCCCC1 | inactive
26 | COCCCN(C(=S)Nc1ccc(C)cc1Cl)C(C)c1ccncc1 (stereo not drawn) | inactive
27 | CC(=O)Nc1ccc(S(=O)(=O)N(C)CC(=O)Nc2ccccc2N2CCCC2)cc1 | inconclusive [inhibitor, partial curve, poor fit]
28 | CN1C/C(=C/c2ccncc2)C(=O)/C(=C/c2ccncc2)C1 | active: 2.62 µM
29 | O=C(CSc1nnc(Nc2ccccc2F)s1)NC1CC1 | inactive
30 | OCCC1CN(Cc2cc(F)ccc2F)CCN1CCCc1ccccc1 (stereo not drawn) | inconclusive [inhibitor, single point]
31 | COc1ccc(Oc2nc(C)cc(C)c2C#N)cc1 | inconclusive [inhibitor, single point]
32 | CCn1nc(C(=O)Nc2ccc(N3CCOCC3)cc2)c2ccccc2c1=O | inconclusive [inhibitor, single point]
33 | Cc1ccc(C(C)(C)NC(=O)C2CCC(=O)N(CCCN3CCOCC3)C2)cc1 (stereo not drawn) | inactive
34 | CC(C)(C)c1nnc(N/N=C/c2cc(Br)ccc2O)n(N)c1=O | active: 3.29 µM
35 | C=C1CCN([C@H](C(=O)NCc2ccc(Cl)cc2)C(C)C)S(=O)(=O)c2ccccc21 | inactive
36 | CCCCN(C(=O)c1c(C)noc1C)c1c(N)n(CCCC)c(=O)[nH]c1=O | inactive
37 | CC1COc2ccccc2N1S(=O)(=O)c1ccc(Cl)cc1 (stereo not drawn) | active: 10.4 µM
38 | CC(=O)c1ccc(NC(=O)Nc2ccc(NS(=O)(=O)c3ccc(C)cc3)cc2)cc1 | inconclusive [inhibitor, partial curve]
39 | CCOC(=O)c1ccc(-n2cc(C(=O)c3cccnc3)nn2)cc1 | inactive
40 | COC(=O)C1CN(C(=O)C(C)Oc2ccccc2Cl)c2ccccc2O1 (stereo not drawn) | inconclusive [inhibitor, single point]
41 | Cc1ccc(S(=O)(=O)N(C)C)cc1NC(=O)CN1C(=O)NC(Cc2c[nH]c3ccccc23)C1=O (stereo not drawn) | inconclusive [inhibitor, partial curve, poor fit]
42 | O=C(CSc1nc2ccc(Nc3nc(N4CCOCC4)nc(N4CCOCC4)n3)cc2s1)Nc1ccccc1F | inconclusive [inhibitor, partial curve]
43 | O=C(NCc1ccc2c(c1)OCO2)c1cc(-c2ccncc2)nc2ccccc12 | inconclusive [inhibitor, partial curve, poor fit]

From PubChem BioAssay AID504832 (National Center for Advancing Translational Sciences (NCATS), 2011)
